According to PubChem BioAssay (Tox21):
“And” between values parts separate entries of the source, which are not always exact repeats. Equal values may be shown once. This list was built around the results that the source calls inconclusive (neither active nor inactive); the mix of calls is not that of the screen. For some of these results: Potencies beside an inconclusive call are fits to weak or partial responses and may not hold up. The source made the active and inactive calls. Unless noted, the call rests on the fitted dose curve.

Tests used:
[1] = target: Peroxisome proliferator-activated receptor gamma (Homo sapiens) (UniProt P37231); assay: qHTS assay to identify small molecule antagonists of the peroxisome proliferator-activated receptor gamma (PPARg) signaling pathway (AID 743191); conditions: HEK293H PPARg-UAS-bla, beta-lactamase ratio, antagonist, 17 h; further: nearly all actives have a fitted effect of over 30% in size; further: potency means the concentration at half of the fitted maximal effect; on ratio activity, negative = inhibition: on the % scale 0 is the no-effect control and ±100 the full control effect
Chain of UniProt P37231 (P37231 whole entry, looked up): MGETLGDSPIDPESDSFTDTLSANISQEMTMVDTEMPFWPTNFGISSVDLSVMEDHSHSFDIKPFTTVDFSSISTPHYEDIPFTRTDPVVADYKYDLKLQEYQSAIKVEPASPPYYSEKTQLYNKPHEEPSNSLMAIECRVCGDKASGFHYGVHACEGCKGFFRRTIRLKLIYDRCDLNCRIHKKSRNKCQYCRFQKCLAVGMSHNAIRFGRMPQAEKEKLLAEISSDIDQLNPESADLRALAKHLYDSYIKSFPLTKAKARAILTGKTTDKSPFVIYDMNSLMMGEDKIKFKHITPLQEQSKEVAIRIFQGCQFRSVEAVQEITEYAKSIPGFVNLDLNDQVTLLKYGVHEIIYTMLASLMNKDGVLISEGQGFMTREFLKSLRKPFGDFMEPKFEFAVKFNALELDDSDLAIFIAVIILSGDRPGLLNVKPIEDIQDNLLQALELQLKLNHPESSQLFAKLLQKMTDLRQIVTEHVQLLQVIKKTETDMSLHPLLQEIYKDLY
In short: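 GeneBLAzer PPARg UAS-bla HEK293H cells, 5 h post-plating, exposed to compounds 17 h at 37C. LiveBLAzer B/G FRET substrate added for 1 h at room temperature; beta-lactamase reporter read by fluorescence intensity.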

[2] = qHTS assay for small molecule agonists of the antioxidant response element (ARE) signaling pathway (AID 743202; active means well fitted activation curve with a large enough effect in the signal ratio in the repeat runs, not every such curve was filed as active; inconclusive means weak or mixed curves, or effect the other way; inactive means no such curve, though single readings can be large or run the other way; the % refers to the signal ratio; further: potency means the concentration at half of the fitted maximal effect; on activation: on the % scale 0 is the no-effect control and ±100 the full control effect); conditions: HepG2 ARE-bla reporter, beta-lactamase FRET, 16 h; activation: at 73.3 µM (top of the series) unless noted
In short: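 HepG2 ARE-bla cells; 16 h treatment at 37 C; FRET-based beta-lactamase fluorescence read after 2 h substrate incubation at room temperature.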

[3] = qHTS assay to identify small molecule agonists of the farnesoid-X-receptor (FXR) signaling pathway - cell viability counter screen (AID 743218; active means well fitted curve in the direction sought with a large enough effect in the repeat runs; inconclusive means weak or mixed curves; inactive means no such curve, though single readings can be large; an effect the other way counts as inactive or inconclusive; further: nearly all actives have a fitted effect of over 45% in size; further: potency means the concentration at half of the fitted maximal effect); conditions: FXR-bla HEK293T viability, CellTiter-Glo luminescence, 16 h; viability change, negative = cytotoxic: at 62.6 µM (top of the series) unless noted
In short: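 Quantitative HTS counter screen measuring ATP-based viability via CellTiter-Glo luminescence in HEK 293T cells carrying a UAS-driven beta-lactamase reporter, after 16 h compound exposure at 37 C.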

[4] = qHTS assay to identify small molecule agonists of the NFkB signaling pathway - cell viability counter screen (AID 1159515); further: nearly all actives have a fitted effect of over 55% in size; further: potency means the concentration at half of the fitted maximal effect
In short: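 Tox21 library compounds were tested for cytotoxicity against NFkB-bla ME-180 cells during a 5 hr exposure at 37 C. CellTiter-Glo luminescence served as the viability read-out.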

[5] = qHTS assay for small molecule activators of the heat shock response signaling pathway (AID 743210; active means well fitted activation curve with a large enough effect in the signal ratio in the repeat runs, with a control signal flat, not every such curve was filed as active; inconclusive means weak or mixed curves; the % refers to the signal ratio; further: potency means the concentration at half of the fitted maximal effect); conditions: HeLa HSE-bla reporter, beta-lactamase ratio, 5 h; activation: at 62.6 µM (top of the series)
In short: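 Following overnight attachment, HSE-bla HeLa cells received test compounds for 5 h at 37 C; beta-lactamase activity was then detected via FRET substrate fluorescence.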

[6] = target: Peroxisome proliferator-activated receptor delta (Homo sapiens) (UniProt Q03181); assay: qHTS assay to identify small molecule agonists of the peroxisome proliferator-activated receptor delta (PPARd) signaling pathway (AID 743212); conditions: HEK293H PPARd-UAS-bla, beta-lactamase FRET ratio, 17 h; activation: at 62.6 µM (top of the series) unless noted; further: potency means the concentration at half of the fitted maximal effect
Chain of UniProt Q03181 (Q03181 whole entry, looked up): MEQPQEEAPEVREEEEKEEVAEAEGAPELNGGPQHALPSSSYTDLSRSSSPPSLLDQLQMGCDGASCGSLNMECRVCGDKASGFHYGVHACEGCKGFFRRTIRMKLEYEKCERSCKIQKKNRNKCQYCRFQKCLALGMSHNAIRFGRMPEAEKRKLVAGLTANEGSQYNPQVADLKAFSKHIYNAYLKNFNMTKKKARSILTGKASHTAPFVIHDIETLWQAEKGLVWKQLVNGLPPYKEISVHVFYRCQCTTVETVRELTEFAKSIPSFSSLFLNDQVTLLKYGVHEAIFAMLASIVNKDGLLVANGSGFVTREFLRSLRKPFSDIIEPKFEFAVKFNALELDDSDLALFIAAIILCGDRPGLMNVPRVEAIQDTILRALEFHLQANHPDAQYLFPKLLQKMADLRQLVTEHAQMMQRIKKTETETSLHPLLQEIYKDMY
In short: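 Tox21 library screened in GeneBLAzer PPARd UAS-bla HEK293H cells. After compound treatment at 37 C, a FRET-based beta-lactamase substrate was applied for 2 h and fluorescence recorded.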

[7] = target: Peroxisome proliferator-activated receptor delta (Homo sapiens) (UniProt Q03181); assay: qHTS assay to identify small molecule antagonists of the peroxisome proliferator-activated receptor delta (PPARd) signaling pathway (AID 743215; active means well fitted inhibition curve with a large enough effect in the signal ratio in the repeat runs, not every such curve was filed as active; inconclusive means weak or mixed curves, or effect the other way; inactive means no such curve, though single readings can be large or run the other way; the % refers to the signal ratio;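 further: cells stimulated with agonist L165041 at 300 nM final during compound exposure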; further: potency means the concentration at half of the fitted maximal effect); conditions: HEK293H PPARd-UAS-bla, beta-lactamase FRET ratio, antagonist, 17 h; ratio activity, negative = inhibition: at 62 µM (top of the series) unless noted
In short: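 Here, a reporter line (HEK293H, beta-lactamase under a UAS) measures PPARd signaling. Compounds are tested against agonist L165041 at 300 nM final concentration over 17 h at 37 C, with fluorescence read after substrate.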

[8] = qHTS assay to identify small molecule antagonists of the peroxisome proliferator-activated receptor gamma (PPARg) signaling pathway - cell viability counter screen (AID 743194; active means well fitted curve in the direction sought with a large enough effect in the repeat runs; inconclusive means weak or mixed curves; inactive means no such curve, though single readings can be large; an effect the other way counts as inactive or inconclusive; further: nearly all actives have a fitted effect of over 55% in size; further: potency means the concentration at half of the fitted maximal effect); conditions: PPARg-bla HEK293H viability, CellTiter-Glo luminescence, 17 h; Potency: co-treated with 50 nM rosiglitazone unless noted; activity change, negative = cytotoxicity: at 62.6 µM (top of the series), co-treated with 50 nM rosiglitazone unless noted
In short: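 Cytotoxicity counter screen in PPARg-bla HEK293H cells, same wells as reporter assay. Compounds plus 50 nM rosiglitazone (final) for 17 h at 37 C, then viability read by CellTiter-Glo luminescence.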

[9] = target: Bile acid receptor (Homo sapiens) (UniProt Q96RI1); assay: qHTS assay to identify small molecule antagonists of the farnesoid-X-receptor (FXR) signaling pathway (AID 743217; active means well fitted inhibition curve with a large enough effect in the signal ratio in the repeat runs, not every such curve was filed as active; inconclusive means weak or mixed curves, or effect the other way; inactive means no such curve, though single readings can be large or run the other way; the % refers to the signal ratio; further: potency means the concentration at half of the fitted maximal effect); conditions: HEK293T FXR-UAS-bla, beta-lactamase ratio, CDCA-stimulated, 16 h; activity change, negative = inhibition: at 62.6 µM (top of the series) unless noted
Chain of UniProt Q96RI1 (Q96RI1 whole entry, looked up): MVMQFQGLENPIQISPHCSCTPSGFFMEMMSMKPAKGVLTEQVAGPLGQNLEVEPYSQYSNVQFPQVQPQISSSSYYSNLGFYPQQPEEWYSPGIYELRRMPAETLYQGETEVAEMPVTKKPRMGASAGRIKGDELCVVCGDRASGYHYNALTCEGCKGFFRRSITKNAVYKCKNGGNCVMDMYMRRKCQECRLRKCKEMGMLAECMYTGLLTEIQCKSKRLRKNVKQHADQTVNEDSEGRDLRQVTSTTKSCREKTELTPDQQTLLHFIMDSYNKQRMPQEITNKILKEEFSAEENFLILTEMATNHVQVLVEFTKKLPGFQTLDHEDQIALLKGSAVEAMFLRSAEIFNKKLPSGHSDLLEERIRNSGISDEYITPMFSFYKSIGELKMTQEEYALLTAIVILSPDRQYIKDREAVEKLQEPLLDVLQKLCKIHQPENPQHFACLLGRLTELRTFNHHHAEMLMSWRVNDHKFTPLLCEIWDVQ
In short: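 Test compounds are pin-transferred onto FXR-bla HEK 293T cells, then chenodeoxycholic acid is added at 50 uM final. After 16 h at 37 °C, LiveBLAzer B/G substrate is applied for 2 h at room temperature and fluorescence read.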

[10] = qHTS assay to identify small molecule agonists of the vitamin D receptor (VDR) signaling pathway - cell viability counter screen (AID 743224; active means well fitted curve in the direction sought with a large enough effect in the repeat runs; inconclusive means weak or mixed curves; inactive means no such curve, though single readings can be large; an effect the other way counts as inactive or inconclusive; further: potency means the concentration at half of the fitted maximal effect; nearly all actives have a fitted effect of over 50% in size)
In short: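 CellTiter-Glo viability readout on VDR-bla cells, measured after 16 h of compound treatment at 37C in the same wells.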

[11] = qHTS assay for small molecule agonists of the antioxidant response element (ARE) signaling pathway - cell viability counter screen (AID 743203); further: potency means the concentration at half of the fitted maximal effect; nearly all actives have a fitted effect of over 55% in size
In short: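 ATP content via CellTiter-Glo luminescence served as the viability measure. Cells: ARE-bla HepG2, 2,000 per well. Exposure: 16 hrs, 37C/5% CO2.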

[12] = qHTS assay for small molecule activators of the heat shock response signaling pathway - cell viability counter screen (AID 743209; active means well fitted curve in the direction sought with a large enough effect in the repeat runs; inconclusive means weak or mixed curves; inactive means no such curve, though single readings can be large; an effect the other way counts as inactive or inconclusive; further: potency means the concentration at half of the fitted maximal effect; nearly all actives have a fitted effect of over 50% in size); conditions: HSE-bla HeLa viability, CellTiter-Glo luminescence, 5 h; activity change, negative = cytotoxicity: at 62.6 µM (top of the series) unless noted
In short: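 Compounds dissolved in DMSO were added to overnight-plated HSE-bla HeLa cells and left 5 h at 37 C. Cell viability was quantified by luminescence using CellTiter-Glo.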

[13] = qHTS assay to identify small molecule agonists of the peroxisome proliferator-activated receptor delta (PPARd) signaling pathway - cell viability counter screen (AID 743211; active means well fitted curve in the direction sought with a large enough effect in the repeat runs; inconclusive means weak or mixed curves; inactive means no such curve, though single readings can be large; an effect the other way counts as inactive or inconclusive; further: potency means the concentration at half of the fitted maximal effect; nearly all actives have a fitted effect of over 55% in size); conditions: PPARd-bla HEK293H viability, CellTiter-Glo luminescence, 17 h; activity change, negative = cytotoxicity: at 62.6 µM (top of the series) unless noted
In short: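 Viability of GeneBLAzer PPARd UAS-bla HEK293H cells was assessed after 17 h compound incubation at 37C, using CellTiter-Glo reagent added after the reporter read and luminescence recorded 30 min later.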

[14] = qHTS assay to identify small molecule antagonists of the peroxisome proliferator-activated receptor delta (PPARd) signaling pathway - cell viability counter screen (AID 743213; active means well fitted curve in the direction sought with a large enough effect in the repeat runs; inconclusive means weak or mixed curves; inactive means no such curve, though single readings can be large; an effect the other way counts as inactive or inconclusive; further: potency means the concentration at half of the fitted maximal effect; nearly all actives have a fitted effect of over 50% in size); conditions: PPARd-bla HEK293H viability, CellTiter-Glo luminescence, 17 h; viability change, negative = cytotoxic: at 62 µM (top of the series) unless noted
In short: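 HEK293H cells with the PPARd UAS-bla reporter, co-treated 17 h at 37 C with compounds and L165041 (300 nM final), were lysed with CellTiter-Glo. Luminescence indicated viable cell content.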

[15] = target: Bile acid receptor (Homo sapiens) (UniProt Q96RI1); assay: qHTS assay to identify small molecule agonists of the farnesoid-X-receptor (FXR) signaling pathway (AID 743220; active means well fitted activation curve with a large enough effect in the signal ratio in the repeat runs, not every such curve was filed as active; inconclusive means weak or mixed curves, or effect the other way; the % refers to the signal ratio; further: on the % scale 0 is the no-effect control and ±100 the full control effect); conditions: HEK293T FXR-UAS-bla, beta-lactamase FRET ratio, 16 h; activation: at 62.6 µM (top of the series) unless noted
In short: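 FXR-UAS-bla HEK 293T cells carrying a UAS-driven beta-lactamase reporter were plated for 5 h at 37C/5% CO2, then exposed to DMSO-dissolved Tox21 10K compounds for 16 h at 37C. A LiveBLAzer B/G FRET substrate was loaded for 2 h at room temperature before fluorescence reading.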

[16] = target: Vitamin D3 receptor (Homo sapiens) (UniProt P11473); assay: qHTS assay to identify small molecule antagonists of the vitamin D receptor (VDR) signaling pathway (AID 743223; active means well fitted inhibition curve with a large enough effect in the signal ratio in the repeat runs, not every such curve was filed as active; inconclusive means weak or mixed curves, or effect the other way; inactive means no such curve, though single readings can be large or run the other way; the % refers to the signal ratio; further: on the % scale 0 is the no-effect control and ±100 the full control effect); conditions: VDR-UAS-bla HEK293T, beta-lactamase FRET ratio, 16 h; activity change, negative = inhibition: at 61 µM (top of the series) unless noted
Chain of UniProt P11473 (P11473 whole entry, looked up): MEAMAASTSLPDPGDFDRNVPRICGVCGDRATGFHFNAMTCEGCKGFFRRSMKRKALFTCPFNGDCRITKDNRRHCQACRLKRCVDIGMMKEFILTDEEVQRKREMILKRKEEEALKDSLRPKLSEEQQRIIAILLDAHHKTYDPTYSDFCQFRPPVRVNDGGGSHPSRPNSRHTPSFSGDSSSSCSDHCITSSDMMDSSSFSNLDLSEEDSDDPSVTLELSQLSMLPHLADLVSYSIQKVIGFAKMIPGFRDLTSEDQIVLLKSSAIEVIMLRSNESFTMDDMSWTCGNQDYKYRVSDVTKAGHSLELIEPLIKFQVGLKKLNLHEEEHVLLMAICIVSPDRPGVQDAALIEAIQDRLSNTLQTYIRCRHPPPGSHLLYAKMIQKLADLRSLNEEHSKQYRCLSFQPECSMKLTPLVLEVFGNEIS
In short: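 Fluorescence from LiveBLAzer B/G FRET substrate, read after 2 h at room temperature, reflects beta-lactamase reporter activity in VDR-bla cells treated 16 h at 37C with compounds and agonist 1alpha,25-dihydroxyvitamin D3 (3 nM final).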

[17] = qHTS assay to identify small molecule antagonists of the vitamin D receptor (VDR) signaling pathway - cell viability counter screen (AID 743225; active means well fitted curve in the direction sought with a large enough effect in the repeat runs; inconclusive means weak or mixed curves; inactive means no such curve, though single readings can be large; an effect the other way counts as inactive or inconclusive; further: potency means the concentration at half of the fitted maximal effect; nearly all actives have a fitted effect of over 50% in size); conditions: VDR-bla HEK293T viability, CellTiter-Glo luminescence, 16 h; viability change, negative = cytotoxic: at 61 µM (top of the series) unless noted
In short: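 Cells (VDR-UAS-bla HEK 293T) are plated, rested 4 h at 37C, dosed with compound and 3 nM final 1-alpha,25-dihydroxy vitamin D3, and incubated 16 h. Viability is taken from CellTiter-Glo luminescence in the reporter wells.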

[18] = target: Vitamin D3 receptor (Homo sapiens) (UniProt P11473); assay: qHTS assay to identify small molecule agonists of the vitamin D receptor (VDR) signaling pathway (AID 743222); conditions: HEK293T VDR-UAS-bla, beta-lactamase FRET ratio, 16 h; activation: at 63.5 µM (top of the series) unless noted; further: potency means the concentration at half of the fitted maximal effect
In short: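 Tox21 cell reporter format: VDR-bla line, 16 h compound exposure in 5% CO2 at 37C, then fluorescence intensity after 2 h with LiveBLAzer B/G FRET substrate.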

[19] = ratio activity, negative = inhibition: at 62.6 µM (top of the series) unless noted
Tags describe the fitted curve by direction and shape or compound fluorescence and quenching.

COP(=S)(OC)Oc1cc(Cl)c(Cl)cc1Cl
inconclusive: Potency [1, 19] 54.6 µM [inhibitor, single point] | ratio activity, negative = inhibition [1, 19] -13.9% | Potency [4] 61.2 µM [rising, partial curve, poor fit]
inactive and 23.7 µM (inconclusive): Potency [2]
inactive: Potency [3]

CCOP(=S)(OCC)Oc1ccc2c(C)c(Cl)c(=O)oc2c1
inconclusive: ratio activity, negative = inhibition ([1]; at 62.6 µM (top of the series)) 18.6% | ratio activity, negative = inhibition ([1]; at 81.1 µM (top of the series)) -36.9% | Potency [1, 19] 49 µM [inhibitor, partial curve] | Potency [2] 26.6 µM | Potency [5] 62.3 µM [falling, partial curve, poor fit] and 21.9 µM [falling, partial curve, poor fit] | Potency [6] 17.6 µM [rising, full curve] | Potency [7] 44.1 µM [rising, partial curve] | Potency [3] 11 µM [rising, partial curve, poor fit] | Potency [4] 23.9 µM [rising, partial curve]

Oc1ccc(Cl)c(Cl)c1Cl
inactive: Potency [8] | Potency [5] | Potency [7]
inconclusive: ratio activity, negative = inhibition [1, 19] 0.338% [at 81.1 µM] | Potency [2] 63.4 µM | activity change, negative = inhibition [9] 6.55% [at 81.1 µM] | Potency [10] 57 µM [cytotoxic, partial curve, poor fit] | Potency [4] 16.1 µM [rising, full curve, poor fit]

CC(C)(C)c1ccc(CSc2cnn(C(C)(C)C)c(=O)c2Cl)cc1
active: Potency [11] 24.3 µM
inconclusive: Potency [1, 19] 21.9 µM | Potency [8] 3.09 µM [rising, full curve, poor fit] | Potency [2] 15.4 µM [rising, full curve] | Potency [12] 30.9 µM [cytotoxic, partial curve, poor fit] | Potency [13] 0.0871 µM [cytotoxic, full curve] | Potency [14] 4.9 µM [cytotoxic, full curve, poor fit] | Potency [9] 54.9 µM [rising, partial curve, poor fit] | Potency [3] 0.123 µM [rising, full curve, poor fit] | activation [15] 7.26% | activity change, negative = inhibition [16] 41.7% | Potency [10] 15.5 µM [cytotoxic, full curve] | Potency [17] 0.0389 µM [cytotoxic, full curve, poor fit] | Potency [4] 19.5 µM [cytotoxic, partial curve, poor fit]

COc1ccc(C(=O)N2CCCC2=O)cc1
inconclusive: Potency [18] 11.9 µM [falling, partial curve, poor fit]
inactive: Potency [1, 19] | Potency [2] | Potency [4]
